From the supplement of paper PMC4604168 (melanoma cell lines)
The list shows a part of the results. Many values rest on one well or one pass, so single values are uncertain.

system: SkMel30; test: cell count relative to DMSO control; melanoma cells; higher = more viable cells; settings: library dose: low library concentration; 72 h
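Further: cell number obtained by counting DAPI-stained nuclei in high-throughput microscope images with image analysis software, screen run in 1,536-well plates.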

**Q.** For `Cc1cn(-c2cc(NC(=O)c3ccc(C)c(Nc4nccc(-c5cccnc5)n4)c3)cc(C(F)(F)F)c2)cn1` [nilotinib] + NCC(=O)Nc1ccc(-n2nc(C(F)(F)F)cc2-c2ccc3c(ccc4ccccc43)c2)cc1 [OSU03012] (first compound 0.2 µM, partner dose 1 µM), which cell count is on record?
**A.** 52.4%

**Q.** For `Cc1cn(-c2cc(NC(=O)c3ccc(C)c(Nc4nccc(-c5cccnc5)n4)c3)cc(C(F)(F)F)c2)cn1` [nilotinib] + CO[C@@H]1[C@H](N(C)C(=O)c2ccccc2)C[C@H]2O[C@]1(C)n1c3ccccc3c3c4c(c5c6ccccc6n2c5c31)C(=O)NC4 [Midostaurin] (first compound 0.2 µM, partner dose 0.08 µM), which cell count is on record?
**A.** 73.8%

**Q.** Which cell count does the source give for `Cc1cc(Nc2cc(N3CCN(C)CC3)nc(/C=C/c3ccccc3)n2)n[nH]1` + COC(=O)c1sccc1S(=O)(=O)Nc1ccc(Nc2ccccc2)cc1OC [GSK0660] (first compound 0.04 µM, partner dose 1 µM) here?
**A.** 98.8%

**Q.** How did the cell count turn out when `COc1ccc(C2=N[C@@H](c3ccc(Cl)cc3)[C@@H](c3ccc(Cl)cc3)N2C(=O)N2CCNC(=O)C2)c(OC(C)C)c1` [Nutlin-3] + CC(C)CCN1c2nc(Nc3cc(F)c(O)c(F)c3)ncc2N(C)C(=O)C1C [BID1870] (first compound 0.1 µM, partner dose 0.2 µM) was run?
**A.** 86.4%

**Q.** With `COc1ccc(C2=N[C@@H](c3ccc(Cl)cc3)[C@@H](c3ccc(Cl)cc3)N2C(=O)N2CCNC(=O)C2)c(OC(C)C)c1` [Nutlin-3] + COc1ccc2c(c1)CCC1C2CCC2(C)C(NCCCCCCN3C(=O)C=CC3=O)CCC12 [U73122] (first compound 0.1 µM, partner dose 0.4 µM) as the compound, how does the cell count read?
**A.** 110%

**Q.** With `Cc1cc(Nc2cc(N3CCN(C)CC3)nc(/C=C/c3ccccc3)n2)n[nH]1` + Oc1nc(-c2ccc(C(F)(F)F)cc2)nc2c1CSCC2 [XAV939] (first compound 0.04 µM, partner dose 2 µM) as the compound, how does the cell count read?
**A.** 98.8%

**Q.** With `COc1ccc(C2=N[C@@H](c3ccc(Cl)cc3)[C@@H](c3ccc(Cl)cc3)N2C(=O)N2CCNC(=O)C2)c(OC(C)C)c1` [Nutlin-3] + CCc1ccc(CCOc2ccc(CC3SC(=O)NC3=O)cc2)nc1 [pioglitazone] (first compound 0.1 µM, partner dose 2 µM) as the compound, how does the cell count read?
**A.** 90.2%

**Q.** Which cell count does the source give for `COc1ccc(C2=N[C@@H](c3ccc(Cl)cc3)[C@@H](c3ccc(Cl)cc3)N2C(=O)N2CCNC(=O)C2)c(OC(C)C)c1` [Nutlin-3] + O=C(CCCCCCC(=O)Nc1ccccc1)NO [vorinostat] (first compound 0.1 µM, partner dose 0.08 µM) here?
**A.** 107%

**Q.** `Cn1c(=O)n(-c2ccc(C(C)(C)C#N)cc2)c2c3cc(-c4cnc5ccccc5c4)ccc3ncc21` + Cn1cncc1[C@@](N)(c1ccc(Cl)cc1)c1ccc2c(c1)c(-c1cccc(Cl)c1)cc(=O)n2C [tipifarnib] (first compound 0.004 µM, partner dose 0.01 µM) was tested. Which cell count did it give?
**A.** 71%
